Source: the supplement of paper PMC12217912
Some of the results follow. Sequences were assembled here from the parent chain. Inactive controls read about 0.05.

B1: TEV protease; numbered along this chain (parent)
chain: MGESLFKGPRDYNPISSSICHLTNESDGHTTSLYGIGFGPFIITNKHLFRRNNGTLVVQSLHGVFKVKDTTTLQQHLVDGRDMIIIRMPKDFPPFPQKLKFREPQREERICLVTTNFQTKSMSSMVSDTSCTFPSGDGIFWKHWIQTKDGQCGSPLVSTRDGFIVGIHSASNFTNTNNYFTSVPKNFMELLTNQEAQQWVSGWRLNADSVLWGGHKVFMVKPEEPFQPVKEATQL

Variants of: B1
Assay: raw area under fraction-flipped curve 0-4 h after induction (AUC4h, not background-subtracted), DNA-recorder readout of cleavage of the substrate (dimensionless); higher = more cleavage of the substrate by the protease variant
Conditions: temperature: 34 °C; time window: 0-4 h after rhamnose induction
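Also: Bxb1 expression induced with 0.2% (w/v) L-rhamnose at OD600 near 0.5, cultures sampled hourly, flipped fraction per protease–substrate barcode pair counted by paired-end Illumina sequencing.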

Variant | area with substrate ENLDFQS | area with substrate ENLEFQS | area with substrate ENLFFQS | area with substrate ENLHFQS | area with substrate ENLIFQS | area with substrate ENLKFQS | area with substrate ENLLFQS | area with substrate ENLNFQS | area with substrate ENLQFQS | area with substrate ENLRFQS | area with substrate ENLSFQS | area with substrate ENLTFQS | area with substrate ENLVFQS | area with substrate ENLWFQS | area with substrate ENLPFQS | area with substrate ENLGFQS | area with substrate ENLMFQS
S135Y | 0.0535 | 0.0612 | 0.0651 | 0.0579 | 0.0559 | 0.0691 | 0.122 | 0.0653 | 0.0603 | 0.0778 | 0.0548 | 0.0577 | 0.0654 | 0.0766 |  |  | 
D137C | 0.0604 |  | 0.0883 | 0.0623 |  | 0.0839 |  |  |  | 0.0676 | 0.0698 |  | 0.0913 | 0.0514 |  |  | 
F140A | 0.0517 | 0.0603 | 0.0402 |  |  |  | 0.0609 | 0.0386 |  | 0.0586 | 0.0593 |  |  |  | 0.055 |  | 
K148F | 0.0731 | 0.0683 | 0.0745 |  |  | 0.0752 |  |  |  | 0.0665 | 0.0712 |  |  |  |  |  | 
K148I | 0.0789 | 0.0628 | 0.0933 | 0.0852 | 0.0706 | 0.0553 | 0.0771 | 0.0665 | 0.0717 | 0.0786 |  |  |  | 0.0752 | 0.0508 |  | 
Q151I | 0.0595 | 0.0543 | 0.0645 | 0.0684 | 0.0772 | 0.0708 | 0.0716 | 0.0502 | 0.0827 | 0.0749 | 0.0814 |  |  | 0.0566 | 0.0318 | 0.0609 | 
S154G | 0.069 |  | 0.0716 | 0.06 |  | 0.0818 |  | 0.068 |  | 0.0935 | 0.0646 | 0.0841 | 0.0909 | 0.0995 | 0.041 |  | 
P155Y | 0.047 | 0.0688 | 0.0441 |  | 0.0697 | 0.0611 | 0.0673 | 0.0562 | 0.0649 |  | 0.0438 |  | 0.0412 |  |  |  | 
R160H | 0.074 |  |  |  | 0.105 | 0.0793 | 0.0731 |  | 0.0732 | 0.0724 | 0.041 |  |  |  |  | 0.0329 | 
F163L | 0.0662 |  | 0.0859 | 0.0766 | 0.08 | 0.0894 |  | 0.0403 | 0.0487 | 0.0646 | 0.0594 |  |  | 0.0784 |  |  | 
I164T | 0.0605 | 0.0563 | 0.072 | 0.0562 | 0.0505 | 0.081 | 0.0395 | 0.061 |  | 0.0592 | 0.0479 |  | 0.0736 | 0.0546 | 0.0581 |  | 
I164Y | 0.0629 | 0.0497 | 0.0574 | 0.0724 | 0.0437 | 0.058 | 0.0732 | 0.053 |  |  |  |  |  | 0.0503 | 0.0499 |  | 
F173L | 0.0593 | 0.0498 | 0.0824 |  | 0.0737 | 0.0794 | 0.0767 | 0.0756 | 0.0607 |  | 0.0536 |  |  | 0.0718 | 0.0676 |  | 
N175M | 0.0841 |  |  | 0.0632 |  | 0.0579 |  | 0.0645 |  | 0.0787 | 0.0584 |  |  |  | 0.0632 | 0.0601 | 
S182A | 0.0498 |  | 0.096 | 0.0667 |  |  | 0.0844 | 0.064 |  |  | 0.0477 | 0.0742 |  | 0.0731 |  |  | 
V183E | 0.0472 | 0.0323 |  | 0.0475 |  | 0.051 |  | 0.0474 |  | 0.0525 | 0.0615 |  |  |  | 0.0541 |  | 
V183Y | 0.0528 |  | 0.116 | 0.0573 |  |  | 0.0548 | 0.0543 | 0.0635 | 0.0526 | 0.0429 |  |  | 0.0671 | 0.0511 |  | 0.0714
M188Y | 0.0681 | 0.0816 | 0.0822 | 0.0378 |  | 0.0834 |  | 0.0637 |  | 0.0739 | 0.0651 |  | 0.0815 | 0.0525 | 0.071 | 0.076 | 
L190G | 0.0667 | 0.0649 | 0.0678 |  | 0.0668 | 0.0638 |  | 0.0677 | 0.0685 |  | 0.0547 | 0.0601 |  | 0.0548 |  |  | 0.0436

Variant | area with substrate ENLDFQS | area with substrate ENLEFQS | area with substrate ENLFFQS | area with substrate ENLHFQS | area with substrate ENLIFQS | area with substrate ENLKFQS | area with substrate ENLLFQS | area with substrate ENLNFQS | area with substrate ENLQFQS | area with substrate ENLRFQS | area with substrate ENLSFQS | area with substrate ENLTFQS | area with substrate ENLVFQS | area with substrate ENLWFQS | area with substrate ENLPFQS | area with substrate ENLGFQS | area with substrate ENLMFQS
Q194E | 0.0594 |  |  | 0.0927 | 0.0888 | 0.0774 | 0.0767 | 0.0497 | 0.0389 | 0.0955 | 0.0722 |  |  | 0.0563 | 0.0539 | 0.0693 | 
A207E | 0.0576 |  | 0.102 |  | 0.0904 | 0.078 |  | 0.0705 | 0.0756 |  |  |  |  | 0.0667 |  |  | 
G214A | 0.0591 |  | 0.0704 | 0.0561 |  | 0.07 | 0.0618 |  |  | 0.0426 | 0.068 |  | 0.0757 | 0.0597 | 0.0617 |  | 
K221D | 0.0592 |  | 0.078 | 0.0572 | 0.0839 | 0.0666 |  | 0.0586 | 0.0438 |  | 0.0648 |  | 0.103 |  | 0.0576 |  | 0.0607
Q234H | 0.0437 | 0.0523 | 0.0803 |  | 0.0701 | 0.0778 | 0.0603 | 0.0558 | 0.0809 | 0.0712 |  |  |  | 0.0701 | 0.0371 | 0.0685 | 
G8R |  | 0.052 | 0.085 |  |  | 0.0855 |  |  |  |  |  | 0.0662 |  |  |  |  | 
C20G |  | 0.0466 |  |  |  | 0.0687 | 0.066 |  |  | 0.0484 |  |  |  |  |  | 0.0611 | 
I85M |  | 0.0615 | 0.0753 | 0.0674 | 0.109 | 0.08 |  | 0.0705 | 0.0625 | 0.0728 | 0.0751 |  |  | 0.0697 |  |  | 0.128
F95V |  | 0.0618 | 0.0651 | 0.0991 | 0.0865 | 0.0641 |  | 0.0555 | 0.0599 | 0.0571 | 0.0644 |  |  |  | 0.0567 | 0.0253 | 0.0712
K148P |  | 0.0763 | 0.0655 | 0.0526 |  | 0.0749 |  | 0.065 |  | 0.0708 | 0.0546 |  |  | 0.0673 | 0.0616 |  | 0.0576
D161H |  | 0.0395 |  | 0.0683 |  | 0.0424 |  | 0.0502 |  | 0.0577 | 0.0587 |  | 0.0478 |  | 0.0422 |  | 
N175P |  | 0.0616 |  | 0.0667 |  | 0.0697 |  | 0.0681 |  |  | 0.0037 |  |  | 0.0548 | 0.0365 | 0.0526 | 0.0536
Y34Q |  |  | 0.0674 |  | 0.0766 |  |  |  | 0.0326 |  |  |  |  |  |  |  | 
G37N |  |  | 0.044 |  | 0.0732 |  | 0.054 | 0.0633 |  |  | 0.0622 | 0.0726 | 0.0671 |  |  |  | 
D79I |  |  | 0.0838 |  |  |  |  |  |  |  | 0.0565 |  |  |  | 0.0475 | 0.0593 | 
Q118S |  |  | 0.0741 | 0.0698 |  | 0.0662 |  | 0.0666 |  | 0.0773 | 0.066 |  | 0.0876 |  | 0.0622 |  | 
A207Y |  |  | 0.0694 |  | 0.0617 |  |  | 0.0532 |  |  |  | 0.101 |  | 0.0677 | 0.0703 |  | 
L211C |  |  | 0.0739 |  | 0.0631 | 0.0696 |  | 0.066 |  |  | 0.0651 |  |  | 0.0709 | 0.0659 | 0.0533 | 
